Results: article PMC4336329 (PLoS ONE, 2015)
Among all 310,000 compounds or so, about 2,200 (0.71%) showed an effect of 50% or more. Effects have a minus sign here. Some of the results follow.

Target: human ether-à-go-go-related gene (hERG) potassium channel (human, UniProt Q12809)
Assay: primary screen, population patch clamp on CHO cells stably expressing hERG

Chain of human ether-à-go-go-related gene (hERG) potassium channel (Q12809 whole entry, looked up): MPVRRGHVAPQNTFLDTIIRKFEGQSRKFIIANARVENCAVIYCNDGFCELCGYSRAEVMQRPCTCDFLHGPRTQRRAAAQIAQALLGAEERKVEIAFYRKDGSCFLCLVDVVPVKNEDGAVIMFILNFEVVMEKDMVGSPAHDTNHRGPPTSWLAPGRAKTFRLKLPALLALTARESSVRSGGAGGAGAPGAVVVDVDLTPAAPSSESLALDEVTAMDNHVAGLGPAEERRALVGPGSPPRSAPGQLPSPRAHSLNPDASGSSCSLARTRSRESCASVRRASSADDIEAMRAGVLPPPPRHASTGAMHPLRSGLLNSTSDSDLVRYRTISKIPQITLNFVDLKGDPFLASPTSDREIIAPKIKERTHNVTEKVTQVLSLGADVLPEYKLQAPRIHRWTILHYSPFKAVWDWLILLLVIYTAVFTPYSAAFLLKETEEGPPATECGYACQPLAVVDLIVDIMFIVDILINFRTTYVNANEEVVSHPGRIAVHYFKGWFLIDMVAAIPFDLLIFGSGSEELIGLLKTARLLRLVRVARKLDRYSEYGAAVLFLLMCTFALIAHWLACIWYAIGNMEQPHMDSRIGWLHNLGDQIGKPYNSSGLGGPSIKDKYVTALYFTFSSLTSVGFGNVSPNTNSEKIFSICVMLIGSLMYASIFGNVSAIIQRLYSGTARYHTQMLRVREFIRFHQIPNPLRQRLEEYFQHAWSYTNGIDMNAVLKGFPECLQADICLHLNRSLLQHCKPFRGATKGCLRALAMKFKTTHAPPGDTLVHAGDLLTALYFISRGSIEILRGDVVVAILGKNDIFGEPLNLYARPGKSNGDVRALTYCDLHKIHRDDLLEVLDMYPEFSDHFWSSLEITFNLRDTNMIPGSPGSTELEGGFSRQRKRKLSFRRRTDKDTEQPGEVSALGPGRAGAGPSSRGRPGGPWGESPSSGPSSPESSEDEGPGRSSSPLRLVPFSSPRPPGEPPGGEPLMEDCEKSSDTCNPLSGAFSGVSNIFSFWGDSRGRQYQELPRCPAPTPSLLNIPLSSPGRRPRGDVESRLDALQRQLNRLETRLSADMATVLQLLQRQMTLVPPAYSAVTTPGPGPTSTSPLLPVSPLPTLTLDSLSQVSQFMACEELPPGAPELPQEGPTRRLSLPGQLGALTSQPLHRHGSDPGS

Point of comparison: `O=C(c1ccccc1)N1CCC(=O)N(C(CO)Cc2ccccc2)CC1` (centres unmarked), “hERG current change (%, negative = inhibition) at 1uM” value 4.6%. Against it:
- CCCn1c2ccccc2c2cnn(CC(=O)NC3CCCC(C)C3C)c(=O)c21 (centres unmarked) — higher, 11.4%
- Cc1ccc(C(=O)Nc2nc(=O)n(C)s2)cc1 — higher, 22.3%
- CCOC(=O)C1CCN(S(=O)(=O)c2cccc(-c3cn4ccccc4n3)c2)CC1 — lower, -9.7%
- COc1ccc(NS(=O)(=O)c2cc(-c3cnc(C4CC4)o3)ccc2C)cc1 — higher, 10.7%
- Cc1cc(Cl)ccc1NC(=S)NCC(O)c1ccccc1 (centres unmarked) — higher, 10.6%
- NC(=O)C1CCN(C(=O)CN2CCc3ccccc32)CC1 — higher, 9.07%
- Cc1ccccc1OCCCSc1nc2ccccc2[nH]1 — higher, 17.2%
- C=CCNC(=O)C1=NN(c2c(F)c(F)cc(F)c2F)C(=O)CC1 — higher, 21.6%
- Cc1ccc(C(=O)C2=C(O)C(=O)N(c3ncccn3)C2c2ccc(Cl)cc2)o1 (centres unmarked) — higher, 7.92%
- COc1ccccc1CN(Cc1cc2cc3c(cc2[nH]c1=O)OCCO3)Cc1nnnn1Cc1ccco1 — higher, 11.5%
- COc1ccc(S(=O)(=O)NCC2CCCN(Cc3ccccc3C)C2)cc1 (centres unmarked) — lower, -12.4%
- CC1CCCN(c2nc3c(c(=O)[nH]c(=O)n3C)n2CCCc2ccccc2)C1 (centres unmarked) — lower, -19.5%
- Cc1cc(SCc2cccc([N+](=O)[O-])c2)nc(=O)[nH]1 — higher, 21.6%
- [O-][N+]1=C(c2cccs2)CN(O)C1 — higher, 10.3%
- O=C(Nc1nc2c(Br)cccc2s1)C1CC1 — higher, 6.57%
- COCCCn1c(=O)c2sccc2n2c(CCCC(=O)NCc3ccc(F)cc3)nnc12 — higher, 11.4%
- CCCN(CC(=O)Nc1ccc(F)c(F)c1F)Cc1cc(=O)n2ccsc2n1 — lower, -17.8%
- CSc1sc(C(=O)NNC(=O)c2ccc(Cl)cc2)c2c1C=CCC2 — higher, 12.1%
- O=C(O)CCCCCNC(=O)c1ccncc1 — lower, -3.96%
- O=C(CCCc1c[nH]c2ccccc12)NCc1cccs1 — higher, 21.4%
- O=C(CSc1nc(-c2ccco2)cc(C(F)(F)F)n1)NCCc1ccccc1 — higher, 5.96%
- Cc1cc(C)c(S(=O)(=O)c2ccccc2)c(N2CCOCC2)n1 — higher, 12.2%
- CCC(C)NCC(=O)Nc1sc2c(c1C(N)=O)CCC2 (centres unmarked) — higher, 9.8%
- COc1ccc(CN(C(=O)Cc2cccs2)C(C(=O)NC2CCCC2)c2ccncc2)cc1 (centres unmarked) — higher, 6.72%
- O=C(Nc1ccc(F)c([N+](=O)[O-])c1)c1cccs1 — higher, 5.25%
- CCn1c(CCC(N)=O)nnc1SCC(=O)Nc1cccc(S(=O)(=O)N2CCCC2)c1 — lower, -5.71%
- C=CCOc1ccc(S(C)(=O)=O)cc1 — higher, 6.2%
- CC1=C(C(=O)Nc2ccc(C)cc2C)C(c2cccc(Cl)c2)n2nc(C(=O)OC(C)C)nc2N1 (centres unmarked) — lower, -1.89%
- Cc1ccccc1-c1nc(CN2CCCC(C(=O)NCCCN3CCOCC3)C2)c(C)o1 (centres unmarked) — lower, 1.58%
- Cc1ccc(CN(Cc2ccco2)C(=S)NCC(=O)NCc2cccnc2)cc1 — higher, 6.08%
- CCOc1ccc(NC(=S)N2CCC(NC(=O)c3ccccc3C)CC2)cc1 — higher, 6.67%
- COCC(=O)Nc1nnc(COc2ccc(Cl)cc2)s1 — lower, 3.99%
- CCOC(=O)CN1C(=O)C(C)(C)Oc2ccc(C(=O)Nc3ccccc3)cc21 — lower, 2.32%
- CCCCn1cnc2c(cnn2-c2ccc(Cl)cc2)c1=O — lower, 2.43%
- Cc1ccc(NC(=O)c2cccc(N3C(=O)C4C5C=CC(C5)C4C3=O)c2)cc1C (centres unmarked) — higher, 6.94%
- CCc1ccc(CN2CCCC(C(=O)c3sccc3C)C2)o1 (centres unmarked) — lower, 1.88%
- Cc1ccc(-n2ncc3c2CCCC3NC(=O)CCc2c(C)noc2C)cc1C (centres unmarked) — higher, 7.03%
- O=C(NCCC1CCCCN1S(=O)(=O)c1ccc(F)cc1)C(=O)NCC1CCCO1 (centres unmarked) — lower, 2.16%
- CC(=O)N1CCN(C(=O)c2ccc(Cl)c(NC(=O)c3cccs3)c2)CC1 — lower, 0.959%
- CCCN(CCC)C(=O)c1cn(C)c2ccc(S(=O)(=O)N3CCCC3)cc2c1=O — higher, 13.4%
- O=C(Cn1cc(C(=O)c2ccco2)c2ccccc21)NC1CCCC1 — higher, 12%
- CCOC(=O)C1CCN(Cc2ccc(F)c(Br)c2)CC1 — lower, 2.48%
- O=C(CCCc1nc2ccccc2s1)NNC(=O)CCN1CCN(Cc2ccccc2)CC1 — lower, -2.98%
- O=C(NC1CCS(=O)(=O)C1)C12CC3CC(CC(C3)C1)C2 (centres unmarked) — higher, 12.3%
- CCS(=O)(=O)N1CCC(C(=O)NC2CCCCC2)CC1 — higher, 6.24%
- O=C(NC1CCCC1)c1cnn2c(C(F)(F)F)cc(-c3ccc4c(c3)OCO4)nc12 — lower, 3.52%
- O=C(Nc1ccon1)c1ccccc1F — higher, 6.98%
- COc1ccc(-c2nc3ccc(C(=O)NCC(OC)OC)cc3nc2-c2ccc(OC)c(OC)c2)cc1OC — higher, 8.94%
- CNC(=O)c1ccc(NC(=O)c2ccc3c(=O)n4c(nc3c2)CCC4)cc1 — higher, 13.5%
- Cc1ccc(C2CC(=O)C(C=NCCN3CCN(C(=O)Cc4ccccc4)CC3)=C(O)C2)cc1 (centres unmarked) — lower, 1.09%
- O=C(NCCCN1CCCC1=O)c1c(O)nc2sccn2c1=O — higher, 8.35%
- COc1ccc(C(=O)N/N=C(\N)c2cc3ccccc3oc2=O)cc1 — higher, 21.4%
- CCOc1ccc2nc(NC(=O)C3CSC4(C)CCC(=O)N34)sc2c1 (centres unmarked) — higher, 6.89%
- O=C1CC(N2CCN(c3ccccc3)CC2)C(=O)N1c1ccc2c(c1)OCCO2 (centres unmarked) — higher, 8.82%
- Cc1ccc(C(=O)N/C(=C\C=C\c2ccccc2)C(=O)NCc2ccco2)cc1 — lower, -10.3%
- CC1CCN(C(=O)C(C)c2ccc([N+](=O)[O-])cc2)CC1 (centres unmarked) — lower, 4.58%
- CSc1ccccc1N=CC1=C(O)CC(C)(C)CC1=O — higher, 6.67%
- CC(C)c1cc(C(=O)Nc2ccc3c(c2)OCO3)no1 — lower, -0.0039%
- CCOC(=O)c1c(C)c(C(=O)N2CCN(c3ccc(F)cc3)CC2)c(C)n1C — lower, -4.72%
- CC(=O)OCc1c(F)c(F)c(-n2nc(C)cc2C)c(F)c1F — higher, 7.43%
- CCOc1ccc(NC(=O)CCC(=O)N/N=C2\CCCc3ccccc32)cc1 — lower, 0.86%
- O=C(Cn1c(NCCO)nc2ccccc21)NCC1CCCO1 (centres unmarked) — higher, 14.7%
- COc1ccccc1N(CC(=O)N/N=C/c1ccc(C(=O)O)cc1)S(=O)(=O)c1ccc(C)cc1 — higher, 17.9%
- CCOC(=O)c1nc(Nc2ccc(N3CCOCC3)cc2)c2ccccc2n1 — higher, 15.1%
- Cc1cccc(C)c1NC(=O)CSc1nnc(-c2ccoc2C)n1CCc1ccccc1 — lower, -14.6%
- Cn1c(=O)c2c(nc(SCC(=O)N3CCc4ccccc4C3)n2C)n(C)c1=O — higher, 6.99%
- COc1cc(NC(=S)NCCCN(C)C)c(OC)cc1NC(=O)c1ccco1 — higher, 7.72%
- CN(C)c1ccc(N2C(=NC(=O)CCc3ccccc3)SC3CS(=O)(=O)CC32)cc1 (centres unmarked) — lower, -4.33%
- O=C(Cn1c(=O)c2cccn2c2ccccc21)Nc1cc(F)ccc1F — higher, 17.4%
- CCCNC(=O)c1cc2c(C(F)(F)F)nn(C)c2s1 — higher, 16.2%
- O=C(c1ccco1)N(Cc1ccc([N+](=O)[O-])cc1)c1ccc(Cl)cc1 — higher, 6.74%
- CCOC(=O)/C(C#N)=C/c1cn(CCC(=O)O)nc1-c1ccc(Br)cc1 — higher, 15.8%
- O=C(O)c1ccc(CNC(=O)c2ccc(Br)o2)cc1 — lower, 1.01%
- CCC(=O)c1ccccc1OCCCN1CCC(Cc2ccccc2)CC1.O=C(O)C(=O)O — lower, -87%
- Cc1[nH]c2ccc(C(=O)OC(C)C(=O)NCc3ccccc3)cc2c1C (centres unmarked) — higher, 11.1%
- O=C(N/N=C/c1cccc([N+](=O)[O-])c1)C1COc2ccccc2O1 (centres unmarked) — lower, 4.07%
- CC(C)CC(=O)N1CCN(Cc2ccccc2Br)CC1 — lower, 2.66%
- COc1ccc(-c2cnc(OC(C)(C)C)nc2OC(C)(C)C)cc1OC — higher, 12.6%
- Cc1ccc(S(=O)(=O)N2CCc3ccccc3C2)cc1 — higher, 12.2%
- C=CCN1CCN(c2ccncc2S(=O)(=O)N2CCOCC2)CC1 — lower, -0.975%
- C/C(=N\Nc1cc(Cl)nc(C)n1)c1ccccc1 — lower, 2.08%
- Cc1ccc(C2Nc3ccccc3C(=O)N2Cc2ccco2)cc1 (centres unmarked) — lower, 0.0211%
- c1ccc(-c2nnc3sc(-c4ccncc4)nn23)cc1 — higher, 11.6%
- CCN(CC(=O)Nc1ccc(NC(C)=O)cc1)C(=O)/C=C/c1c(C)nn(-c2ccc(F)cc2)c1C — higher, 13.6%
- COc1ccc(CCNC(=O)CCC(=O)N2CCN(S(=O)(=O)c3ccc(Cl)cc3)CC2)cc1OC — lower, 3.85%
- CCOc1ccc2nnc(-c3ccc(Br)cc3)n2n1 — lower, 1.81%
- N#Cc1c(C(F)(F)F)cc(-c2ccc(F)cc2)nc1SCC(=O)O — higher, 9.97%
- COC(=O)COc1ccc2c(c1)O/C(=C\c1ccco1)C2=O — higher, 12.6%
